In PubChem BioAssay (NCI):
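The compound was tested at five concentrations on cells cultured in 96-well plates, with a 48-hour exposure period. GI50 = concentration required for 50% inhibition of growth. TGI marks complete inhibition of growth.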

What follows are compounds tested on NCI-H322M lung (assay: NCI-60 cell line screen, 48 h).
Compound `CCOC(=O)C1(C(=O)OCC)CCCN1C(=O)[C@H](CNC(=O)OC(C)(C)C)NC(=O)OCc1ccccc1` has a TGI of over 100 µM.
Compound `CCc1nc2cc3cccnc3c(Cl)c2[nH]c1=O` has a TGI of over 100 µM.
`CC1(C)[C@@H](Cn2cnc3c(Cl)nc(N)nc32)CC[C@@]1(C)CO` was tested, and the TGI was over 100 µM.
`CC/C=C/C/C=C/C/C=C/C/C=C/C/C=C/C/C=C/CCC(=O)Nc1ccn([C@@H]2O[C@H](CO)[C@@H](O)C2(F)F)c(=O)n1` was tested, and the GI50 was 2.72 µM and the TGI was 25.6 µM.
In the case of `COc1ccc(Cc2cnc(NC(=O)c3ccc4c(c3)OCCO4)s2)cc1`, the GI50 is reported as 0.0721 µM and the TGI is reported as 98 µM.
With `O=C(CSC(c1ccccc1)c1ccccc1)N/N=C/c1ccco1` the GI50 was 2.21 µM and the TGI was over 8.82 µM.
For `Cc1ccc(S(=O)(=O)NC(=O)NC2=NC(C)(C)N(c3ccc(Cl)c(Cl)c3)C(N)=N2)cc1`, the TGI was over 100 µM.
For `N#Cc1c(C#N)c(-c2ccccc2)n(-c2ccccc2)c1N`, the TGI was over 100 µM.
Work on `Clc1ccc(N=CNc2ccc(-c3nc4ccccc4o3)cc2)cc1` yielded a GI50 of 28.7 µM and a TGI of 83.1 µM.
`O=C(OCc1ccc2c(Cl)cc(Cl)c(O)c2n1)N1CCN(C(=O)c2cc3cc(F)ccc3[nH]2)CC1` showed a GI50 of 5.02 µM and a TGI of over 100 µM.
`O=C(O)CSC(NC(=O)C(C(F)(F)F)C(F)(F)F)(C(F)(F)F)C(F)(F)F` gave a TGI of over 100 µM.
`COc1cc(CC(C)N)ccc1O` (configuration not stated) gave a TGI of over 100 µM.
`C=C1C(=O)OC2/C=C(/C)C3(O)OC(C)(CC(OC(=O)C(C)C)C12)CC3OC(C)=O` (configuration not stated) showed a TGI of over 100 µM.
In the case of `NC(=O)c1ncn2c1NC(=O)CC2`, the TGI is reported as over 100 µM.
For `CC(C)(C)OC(=O)C1C(=O)NC(=O)CC1C(COCc1ccccc1)OCc1ccccc1` (configuration not stated), the TGI was 87 µM.
`CCCCN(CCCC)C(=C(C(Cl)=C(Cl)Cl)[N+](=O)[O-])N(CCCC)CCCC` gave a TGI of over 100 µM.
`CCN(CC)CCNC(=O)c1ccc(C)c(OCc2ccccc2)c1[N+](=O)[O-]` gave a TGI of over 88.8 µM.
Compound `Cc1ccc(Nc2nnc(-c3ccc4c(c3)OCO4)o2)c(C)c1` has a TGI of over 100 µM.
`O=C(CNCc1ccccc1)Oc1c(Cl)c(Cl)c(Cl)c(Cl)c1Cl` was tested, and the TGI was 70.3 µM.
`Cc1cccc(N=C2NC(=O)C(CC(=O)Nc3cccc(C)c3C)S2)c1` (configuration not stated) gave a TGI of over 100 µM.
For `C=C1CC[C@@H](C(C)C)C[C@@H]2[C@H]([C@H](O)C[C@]2(C)O)[C@@]2(C)CC[C@@H]1O2`, the GI50 was 19.4 µM and the TGI was 35 µM.
`COc1ccc2c(Oc3ccc(NC(=O)c4c(C)n(CC(C)(C)O)n(-c5ccccc5)c4=O)nc3)ccnc2c1` showed a GI50 of 9.09 µM and a TGI of over 100 µM.
Work on `OCC(O)C(O)C(O)/C=N/Nc1nc(O)c(/C=C2\C=Nc3ccccc32)[nH]1` (configuration not stated) yielded a TGI of over 100 µM.
`N#CC(C(=O)CCC(=O)Nc1cccc(C(F)(F)F)c1)c1ccc(Cl)cc1` (configuration not stated) was tested, and the TGI was over 100 µM.
For `CN(C)CCSc1nccc(-c2cc3ccccc3s2)n1`, the TGI was over 100 µM.
In the case of `COC(=O)c1cccc2cccc(C(=O)Nc3ccc(Cl)cc3)c12`, the TGI is reported as over 100 µM.
Work on `c1ccc(CSc2nc3ccccc3nc2-c2cccs2)cc1` yielded a TGI of over 100 µM.
For `O=C(O)c1c2c(cc3c1CC1(Cc4ccccc4C1=O)C3)CCC2` (configuration not stated), the TGI was over 100 µM.
In the case of `COc1ccc2c(c1)CCN=C2c1ccccc1CCCCl`, the TGI is reported as over 100 µM.
`O=C(N/N=C/c1c(Cl)cccc1Cl)c1ccc(C(F)(F)F)nc1Nc1cccc(C(F)(F)F)c1` gave a GI50 of 0.959 µM and a TGI of over 100 µM.
Work on `CN1COCc2cc3cc4c(cc3nc21)OCCO4` yielded a TGI of over 100 µM.
For `CCOc1ccccc1NC(=O)C(=O)Cc1nc2ccccc2s1`, the TGI was over 100 µM.
In the case of `COC(=O)C1=C(C)NC(C)=C([N+](=O)[O-])C1c1cccc(N=O)c1` (configuration not stated), the TGI is reported as over 100 µM.
Compound `Cc1ccc(-c2c(C#N)c(-c3ccc([N+](=O)[O-])cc3)c(C#N)c(=O)n2NS(=O)(=O)c2ccccc2)cc1` has a TGI of over 100 µM.
In the case of `C[C@]12CC[C@H](O)C=C1CC[C@@H]1[C@@H]2CC[C@]2(C)C(c3ccc(=O)oc3)CC[C@]12O` (some centres not stated), the TGI is reported as 0.0249 µM.
For `CN1CCN(c2ccc(Nc3ncc4cc(C#N)c(=O)n(C5CCCC5)c4n3)cc2)CC1`, the GI50 was 1.57 µM and the TGI was over 100 µM.
`COc1ccc(N=C2C(=S)N(c3ccc(OC)cc3)/C(=N/S(=O)(=O)c3ccccc3)N2c2ccccc2)cc1` gave a TGI of over 100 µM.
`CC12CC1C(c1cccc([N+](=O)[O-])c1)(c1cccc([N+](=O)[O-])c1)N=N2` (configuration not stated) showed a TGI of over 100 µM.
For `C[C@H]1CCC/C=C/[C@@H]2C[C@H](O)C[C@H]2[C@H](O)[C@@H](SCC(O)CO)CC(=O)O1` (some centres not stated), the GI50 was 42.1 µM and the TGI was over 100 µM.
`CCCCC#CS(=O)(=O)C(F)(F)F` was tested, and the TGI was over 100 µM.
`COc1ccc(N=NC(=Nc2ccc(F)cc2)c2ccc(N(CCC#N)CCC#N)cc2)cc1` showed a TGI of over 100 µM.
`COC(=O)/C(=C\c1ccc(N(CCC#N)CCC#N)cc1)NC(=O)c1cc([N+](=O)[O-])ccc1Cl` gave a TGI of over 100 µM.
`CCOC(=O)C1CN(C2CC2)CCC1=O` (configuration not stated) showed a TGI of over 100 µM.
Compound `COC(=O)C1OC(O[C@H]2CC[C@]3(C)[C@H]4CC=C5[C@@H]6CC(C)(C)CC[C@]6(C(=O)OC6OCC(O)C(O)C6OC6OC(C)C(OC7OCC(OC8OCC(O)C(O)C8O)C(O)C7O)C(O)C6O)[C@H](O)C[C@@]5(C)[C@]4(C)CC[C@H]3C2(C)C)C(O)C(O)C1O` (some centres not stated) has a TGI of 12.2 µM.
`COP(=O)(OC)C12CCOCCN1c1ccccc1C2=O` (configuration not stated) was tested, and the TGI was over 100 µM.
In the case of `COC(=O)c1cc(C)ccc1CC(Cc1ccc(C)cc1)C(=O)OC` (configuration not stated), the TGI is reported as over 100 µM.
Compound `CCC(=O)Nc1ccc(N=NN(C)C)cc1` has a TGI of over 100 µM.
